According to PubChem BioAssay AID1159614 (National Center for Advancing Translational Sciences (NCATS), 2016):
The whole screen tested about 45,000 compounds, of which about 65 (0.1%) were called active. The call rests on the fitted dose curve; in most records, active means well fitted activation curve with a large enough effect; inconclusive means small, poorly fitted or top-dose-only effect; inactive means no such curve, though single readings can be large or run the other way. This is one part of the list.

target: Galactocerebrosidase (Homo sapiens) (UniProt P54803); test: A Novel Cell-Based Assay to Identify Small Molecules for B -Galactocerebrosidase; details: 145M-Twi-hGALC-G270D cells (Twitcher mouse brain line with human GALC G270D), HMU-beta-Gal fluorescence, 48 h; series mostly up to 57.5 µM; activation: at the top concentration; further: 0% is about no effect; nearly all actives have a fitted effect of over 65% in size
Method in brief: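 Brain-derived Twitcher mouse 145M-Twi cells stably expressing human GALC-G270D or wild-type GALC, treated live, then residual GALC activity read by fluorescence of HMU-b-Gal substrate (0.1 mM final) in citrate-phosphate buffer pH 5.2 with sodium taurocholate. Signal increase indicates enhancement.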

UniProt P54803, sequence (P54803 whole entry, looked up): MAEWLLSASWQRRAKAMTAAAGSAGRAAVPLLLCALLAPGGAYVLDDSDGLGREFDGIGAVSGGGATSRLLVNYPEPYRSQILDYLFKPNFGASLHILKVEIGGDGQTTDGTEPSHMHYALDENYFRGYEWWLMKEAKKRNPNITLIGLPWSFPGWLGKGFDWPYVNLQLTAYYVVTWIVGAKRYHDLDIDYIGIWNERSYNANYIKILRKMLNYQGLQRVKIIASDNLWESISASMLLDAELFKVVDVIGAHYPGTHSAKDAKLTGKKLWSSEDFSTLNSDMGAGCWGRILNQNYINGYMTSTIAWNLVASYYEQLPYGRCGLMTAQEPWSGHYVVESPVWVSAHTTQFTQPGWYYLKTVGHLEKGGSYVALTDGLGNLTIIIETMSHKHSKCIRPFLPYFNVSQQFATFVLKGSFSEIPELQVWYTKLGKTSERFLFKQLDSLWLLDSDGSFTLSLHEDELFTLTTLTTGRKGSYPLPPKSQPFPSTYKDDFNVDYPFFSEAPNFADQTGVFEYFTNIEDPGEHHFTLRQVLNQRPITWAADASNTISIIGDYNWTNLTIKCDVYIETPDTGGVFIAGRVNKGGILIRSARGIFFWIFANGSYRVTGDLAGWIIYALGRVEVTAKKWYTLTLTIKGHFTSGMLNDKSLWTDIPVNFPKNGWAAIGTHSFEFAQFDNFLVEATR

activation, inactive:
CCCC(=O)NC(C)c1nc2ccccc2n1Cc1ccccc1 (stereo not given) -5.71%
Cc1ccc(C(=O)c2cn(CC(=O)NCc3ccccc3Cl)c3nc(C)ccc3c2=O)cc1 -10.6%
Cc1cc(C(=O)N2CCN(c3cccc(C)c3C)CC2)c2c(C)nn(-c3ccccc3)c2n1 -28.1%
CCOC(=O)c1c(C)[nH]c(C)c1S(=O)(=O)N1CCCC(C(=O)NCc2cccc(OC)c2)C1 (stereo not given) -10.9%
COc1cccc(-c2ccc3c(N)c(C(=O)Nc4cc(C(F)(F)F)ccc4OC)sc3n2)c1 -8.51%
CCOC(=O)c1sc(NC(=O)C2c3ccccc3Oc3ccccc32)c(C#N)c1C -44.2%
Cc1cccc(OCC(=O)Nc2cc(-c3ccccc3F)nn2-c2ccccc2)c1 -16.3%
Cc1c(C(=O)N(C)C)sc2c1c(=O)n(-c1ccc(Cl)cc1)c(=O)n2Cc1ccccc1F -10.7%
COc1ccccc1CNC(=O)CCC1N=C2c3ccccc3N=C(SCC(=O)Nc3ccc(N(C)C)cc3)N2C1=O (stereo not given) -7.41%
COc1ccc(S(=O)(=O)N2CCCN(CC(=O)Nc3ccc(OC)cc3OC)CC2)cc1 -19.1%
Cc1nc2nc(SCC(=O)NC3CCCCC3)nn2c(C)c1Cc1ccccc1Cl -3.77%
COC(=O)c1ccc2c(c1)N(Cc1ccc(Cl)cc1)C(=O)c1ccccc1S2 -18.2%
COc1cc(NC(=O)N2CCC(CN3CCOCC3)CC2)cc(OC)c1OC -14%
CC(C)c1ccc(Nc2ncnc3onc(-c4ccc(F)cc4)c23)cc1 -19.5%
COc1ccc(OC)c2sc(N3CCN(C(=O)CCS(=O)(=O)c4ccc(F)cc4)CC3)nc12 -9.31%
Cc1cc(Cl)ccc1NC(=O)Cn1nnc2sc(-c3ccccc3)cc2c1=O -20.8%
CCCn1c2ccccc2c2cnn(CC(=O)N3CCCC(C)C3)c(=O)c21 (stereo not given) -14.3%
COc1cccc(N2CCN(C(=O)c3cc4c(=O)oc5ccc(C)cc5c4s3)CC2)c1 0.628%
CCCCn1nc(NC(=O)c2cccc(Cl)c2)c2cc3cccc(C)c3nc21 -18.2%
Cc1ccc(-n2ncc(C(=O)NCCN3CCCC3)c2C2CCN(C(=O)OC(C)(C)C)CC2)cc1C -8.6%
CCc1ccccc1-n1c(C)nc2cc(C(=O)NCCc3ccc(Cl)cc3)ccc21 -0.76%
O=C(NCCCc1nc2ccccc2n1Cc1ccc(Cl)cc1)C1CCCCC1 5.39%
Cc1ccc(CNC(=O)C2CCN(S(=O)(=O)c3cn(C)cn3)CC2)cc1 -14.5%
COCc1c(C(C)C)nc(C(C)C)c(/C=C/[C@@H](O)C[C@@H](O)CC(=O)O)c1-c1ccc(F)cc1 -7.41%
CC(C)OCCCNC(=O)CN1C(=O)COc2ccc(S(=O)(=O)N3CCCCCC3)cc21 -6.52%
COCCCNC(=O)CCc1c(C)nc2nc(-c3cc(OC)cc(OC)c3)nn2c1C -8.88%
CC(C)N(Cc1ccccc1)S(=O)(=O)c1ccc(-c2cc(C(F)(F)F)on2)s1 -6.55%
Cc1c2cnn(CC(=O)NCc3ccc(F)cc3)c(=O)c2c(C)n1Cc1cccc(Cl)c1 -5.7%
CCOCCCN(Cc1ccco1)S(=O)(=O)c1cc2c(cc1Cl)NC(=O)CO2 -2.83%
Cc1ccccc1-c1noc(-c2ccc(N3CCCCC3)c([N+](=O)[O-])c2)n1 -15.3%
COc1cc(NC(=O)CSc2nnc(C)n3c2cc2oc(C)cc23)cc(OC)c1 -4.98%
CCCCN(CC)CCCNC(=O)CS(=O)(=O)Cc1nc(-c2ccc(C)cc2)oc1C -20.6%
CCOc1ccc(CCNC(=O)C2CCN(C(=O)N3CC(CC)Oc4ccccc43)CC2)cc1 (stereo not given) -8.78%
O=C(Nc1nnc(N2CCCCCC2)s1)Nc1cc(F)ccc1F -12.7%
CCCOc1ccc(C(=O)Nc2ccc3oc(-c4ccncc4)nc3c2)cc1 -19%
CCCCOC(=O)c1c(N)n(-c2ccc(OC)cc2OC)c2nc3ccccc3nc12 -10.3%
CCC(Sc1nnc2c(n1)[nH]c1ccccc12)C(=O)Nc1nnc(C(C)C)s1 (stereo not given) -22.4%
Cn1nnc2c(N3CCN(c4cccc(Cl)c4)CC3)ncnc21 -16.1%
COCCN(Cc1cccs1)S(=O)(=O)c1cc(-c2cc(C)no2)ccc1C 6.13%
COc1cccc(CNC(=O)CCS(=O)(=O)c2ccc3c(c2)oc(=O)n3C)c1 -19%
COCCCNC(=O)c1c(NC(=O)Cc2coc3c(C)c(C)ccc23)sc2c1CCCC2 11.3%
O=C(NC1CC(=O)N(c2cccc(F)c2)C1)c1cccs1 (stereo not given) -4.59%
CCOc1ccc(C(=O)NCc2ccc3c(c2)CCN3C(=O)c2ccc(Cl)cc2)cc1 10.2%
CC(C)N(C(=O)Cn1cc(SCC(=O)Nc2ccccc2F)c2ccccc21)C(C)C -6.48%
Cc1cccc(-n2ncc(C(=O)N3CCOCC3)c2C2CCN(C(=O)OC(C)(C)C)CC2)c1 6.27%
Cc1ccc(CCNS(=O)(=O)c2cc(-c3cc(C)no3)ccc2C)cc1 -13.3%
Cc1ccc(C(=O)c2cc(O)c(O)c([N+](=O)[O-])c2)cc1 -8.44%
Cc1ccc(C(C)C)c(OCCSc2nc(-c3ccccc3F)nc3cc(=O)[nH]n23)c1 -12.7%
CCc1ccc(NC(=O)c2ccc(CN3CC(=O)N4CCCCC4C3=O)cc2)cc1 (stereo not given) -40%
CCc1ccc(OCC(=O)NC(Cc2c[nH]c3ccccc23)C(=O)O)cc1 (stereo not given) -11.4%
CCCN(C(=O)c1cc2c(=O)oc3ccccc3c2s1)c1ccc(CC)cc1 0.469%
CC(C)C(=O)Nc1ccc2nc(SCC(=O)N3CCCC3)sc2c1 -11.4%
Cc1ccccc1Nc1cc(C(=O)NCCCN2CCN(c3cccc(Cl)c3)CC2)c2ccccc2n1 4.29%
Cc1c(Cl)cccc1NC(=O)N1CCN(C(=O)c2nsc3ccccc23)CC1 -18%
CN(Cc1ccccc1)C(=O)c1cn(C)c2ccc(S(=O)(=O)N3CCCCC3)cc2c1=O -4%
COc1cccc(OCc2nc3ccccc3n2CCOc2ccc(C)cc2)c1 -13.8%
COc1cccc(-n2c(=O)c3c(C)c(C)sc3n(CC(=O)NCCc3ccc(OC)c(OC)c3)c2=O)c1 -7.7%
COc1cccc(CNC(=O)c2cc(C)nc3c2c(C)nn3-c2ccc(C)cc2)c1 -10.8%
COc1cc(OC)c(NC(=O)C2CCN(S(=O)(=O)c3c(C)noc3/C=C/c3c(C)cc(C)cc3C)CC2)cc1Cl -11%
COc1ccc(OC)c(NC(=O)CSc2ccc(-c3cccs3)nn2)c1 -11.4%
Cc1ccc(Cn2c(C(=O)O)c(CNCc3ccc(OC(C)C)cc3)c3ccc(C)cc32)cc1 -4.98%
CC12CN3CC(c4ccccc4)(CN(C1)C3c1ccc(O)cc1)C2=O (stereo not given) -15.6%
CCn1c(C(=O)NCc2ccc(F)cc2)cc2oc3ccccc3c21 -16.4%
Cn1c(=O)oc2cc(S(=O)(=O)NC(Cc3ccccc3)C(=O)Nc3ccc(F)cc3)ccc21 (stereo not given) -7%
CCOC(=O)c1c(NC(=O)C(C)Sc2cn(CCNC(=O)c3c(F)cccc3F)c3ccccc23)sc2c1CCC2 (stereo not given) -9.58%
COc1ccc2[nH]cc(CCNC(C)=O)c2c1 -12.7%
O=C(CSc1nc2cc(C(=O)NC3CCCC3)ccc2c(=O)n1CC1CCCO1)c1cccc(Cl)c1 (stereo not given) 4.64%
Cc1ccc(C)c2sc(NC(=O)c3ccc(S(=O)(=O)N4CCC(C)CC4)cc3)nc12 -27.3%
CCN1C(=O)c2ccccc2S(=O)c2ccc(C(=O)NCc3ccc(OC)cc3)cc21 (stereo not given) -9.03%
COc1ccc(CCNc2oc(/C=C/c3cc(OC)c(OC)c(OC)c3)nc2C#N)cc1OC 0.409%
CCOC(=O)c1ccc(N2C(=O)c3n[nH]c(-c4cccs4)c3C2c2ccc(OCC)cc2)cc1 (stereo not given) -14.2%
COc1ccc(OC)c(CCNC(=O)CS(=O)(=O)Cc2nc(-c3cccc(Cl)c3)oc2C)c1 -36.8%
COc1ccccc1NC(=O)CSc1nnc(N)s1 -15.3%
Cc1ccc(Sc2c(C)nn(-c3ccccc3)c2OC(=O)C(C)(C)C)cc1 -18.1%
COC(=O)c1c(NC(=O)C(C)Oc2ccc(Cl)c(C)c2)sc(C)c1C (stereo not given) -18.9%
COc1ccc(OC)c(NS(=O)(=O)c2cc3c(cc2Cl)N(C(C)=O)CCO3)c1 3.76%
CCOc1ccc(NC(=O)CC2C(=O)N(c3ccc(F)cc3)C(=O)N2Cc2ccc(OC)c(OC)c2)cc1 (stereo not given) -17.8%
CCc1ccc(CNC(=O)c2cc(=O)[nH]c3ccc(S(=O)(=O)N4CCCCC4)cc23)cc1 -15.6%
COc1ccc(CC(=O)Nc2ccc3nc(Nc4ccc(OC)cc4)cc(C)c3c2)cc1 -10%
CCOC(=O)c1c(NC(=O)c2cc(C(C)C)on2)sc(C(C)=O)c1C -23.4%
CCOC(=O)c1c(C)oc2nc(C)nc(Nc3ccc(C)c(Cl)c3)c12 6.56%
Cc1c(Cl)ccc2sc(N3CCN(C(=O)C(C)C)CC3)nc12 -18.6%
CN(C)c1ccc(CN(Cc2ccco2)C(=O)c2ccc(C(C)(C)C)cc2)cc1 -15.2%
Cc1ccc(-c2nc3nc(C)cc(N4CCN(c5cccc(C)c5C)CC4)n3n2)cc1 -15.2%
COc1ccc(/C=C\c2onc(C)c2S(=O)(=O)N2CCC(C(=O)Nc3ccc(F)cc3F)CC2)cc1 -0.957%
CCOc1ccccc1NC(=O)NCc1ccc2c(c1)CCN2C(=O)c1ccccc1 -19.9%
Cc1oc(-c2cccc(Cl)c2)nc1CSc1nncn2c1cc1occc12 -22%
Cc1ccc2c(c1Br)C(O)(CC(=O)c1ccc(F)cc1)C(=O)N2 (stereo not given) -2.11%
O=C(NCc1cccs1)c1ccc2c(=O)n3nc(Nc4ccccc4)sc3nc2c1 -12.3%
CCOC(=O)Cn1c(=O)n(CC2CCCO2)c2nc(-c3ccccc3OC)nc(C(N)=O)c21 (stereo not given) -21.6%
O=c1c2sc3ccccc3c2n(Cc2cccc(F)c2)c(=O)n1Cc1ccccc1 2.27%
O=C(NC1CC(=O)N(c2ccc(F)cc2)C1)c1ccc(S(=O)(=O)N2CCCCC2)cc1 (stereo not given) 0.388%
Cc1c(Cl)cccc1NC(=O)CC1Oc2ccccc2NC1=O (stereo not given) -13.3%
CCOc1ccccc1C(=O)N(Cc1ccco1)Cc1ccco1 -3.14%
O=C(c1ccc2c(c1)N(Cc1ccccc1F)C(=O)c1ccccc1S2(=O)=O)N1CCC(Cc2ccccc2)CC1 -8.8%
